Here are results for 14 molecules from PMC12136788.

First the molecules themselves.
T1: UNK ZnF1-6 (called full-length) (human, UniProt Q9C0B0 30-357)
T1 sequence: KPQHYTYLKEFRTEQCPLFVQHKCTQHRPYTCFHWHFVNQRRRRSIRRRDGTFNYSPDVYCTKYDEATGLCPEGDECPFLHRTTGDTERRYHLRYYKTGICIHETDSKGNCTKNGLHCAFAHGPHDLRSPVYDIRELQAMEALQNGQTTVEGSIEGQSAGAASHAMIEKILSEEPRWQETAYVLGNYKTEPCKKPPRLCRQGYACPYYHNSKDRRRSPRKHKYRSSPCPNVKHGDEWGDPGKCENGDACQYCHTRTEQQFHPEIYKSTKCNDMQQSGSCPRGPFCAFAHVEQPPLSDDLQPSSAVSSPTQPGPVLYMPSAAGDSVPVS

B1: chr10:11920118:11920232:-|3pUTR|ENSG00000151461|unk|FALSE|unique (ssRNA)
RNA: GGGAGUUCUACAGUCCGACGAUCGUAGUAUAUUUAGUCGGAGAGCACAUCUGUAUGCGACAACUUGAUUACAUCUUUUUUUCUAGCUAUUUUGCAUUUUUUCUUUUACCAUGUUUCAGUUUCUGCAUGUAGAUUUAAAUAAAACAACAGAGGAUUGAGCAUCA
B2: chr2:25232207:25232317:-|3pUTR|ENSG00000119772|unk|FALSE|unique (ssRNA)
RNA: GGGAGUUCUACAGUCCGACGAUCGGUGAGGGCCCGACGGGCAGGUGCUUGCCUGGGUAGAUGGGGUGUAGAUAUGUGGCAUAUAGAGAUAUAUAUUUUAUAAUGGGAGGGGGGAUGGCACCUCCUGGGACUGGUAGAGCUGGGCAACAGAGGAUUGAGCAUCA
B3: chr8:39103990:39104232:+|3pUTR|ENSG00000168615|msi1|FALSE|unique (ssRNA)
RNA: GGGAGUUCUACAGUCCGACGAUCGUUUUGUCAUUAAGUGUUUAAGUGUUAUUCUGAAUUUUCUACCUUAGUUAUCAUUAAUGUAGUUCCUCAUUGAACAUGUGAUAAUCUAAUACCUGUGAAAACUGACUAAUCAGCUGCCAACAACAGAGGAUUGAGCAUCA
B4: chr10:27170558:27170670:+|CDS|ENSG00000120539|unk|FALSE|unique (ssRNA)
RNA: GGGAGUUCUACAGUCCGACGAUCCUUAUGUGUGAACUCGAUGAAGACUGUGAAAAGAAUAGUAAGAGGGACUACUUAAGUUCUAGUUUUCUAUGUUCUGAUGAUGAUAGAGCUUCUAAAAAUAUUUCUAUGAACUCUGAUUCACAACAGAGGAUUGAGCAUCA
B5: chr1:43978039:43978149:+|3pUTR|ENSG00000117410|unk|FALSE|unique (ssRNA)
RNA: GGGAGUUCUACAGUCCGACGAUCGGCCGUGCCUCACUUUUAUUUAUUGCUGGUUUUCCUGGGACAGCUGGAGCUGUGUCCCUUAGCCUUUCAGAGGCUUGGUGUUCAGGGCCCUCCCUGCACUCCCCUCUUGCUGCGUGUUGACAACAGAGGAUUGAGCAUCA
B6: chr3:62294290:62294391:+|3pUTR|ENSG00000144724|msi1|FALSE|unique (ssRNA)
RNA: GGGAGUUCUACAGUCCGACGAUCAACUAGUCCUCUAAAAAUUCCCUAUUACUCCUAUAGCAAUCUAAUAAAAACUACCUACAUAGUUACUGUUUUCUUUCCUUCUUUGCCAAAUGUUUUAUAAUAAAUCUCUUAAUUACAUACCAACAGAGGAUUGAGCAUCA
B7: chr4:48579112:48579224:-|CDS|ENSG00000075539|unk|FALSE|bound_elsewhere (ssRNA)
RNA: GGGAGUUCUACAGUCCGACGAUCCUCUAUUGCCCUAGCUCGAUAGAUUUACAAACUUUAGCAGAAUGGAACUCUUCUCCUAUUAGCCACCAGUUUGAUGUGAUUAGUCCAUCACAUAUAUGGAUAUUUGCACAUGUGACCCAACAACAGAGGAUUGAGCAUCA
B8: ENSG00000124766:be:win_3901|3pUTR|ENSG00000124766|bound_else_gene|NA|bound_elsewhere_windowed (ssRNA)
RNA: GGGAGUUCUACAGUCCGACGAUCAAUAUGCCGUGUAGAAUAUUUGUCUUAAAAUUCAAGGCCACAAAAACAAUGUUUGGGGGAAAAAAAAGAAAAAAUCAUGCCAGCUAAUCAUGUCAAGUUCACUGCCUGUCAGAUUGUUGACAACAGAGGAUUGAGCAUCA
B9: chr7:80742902:80743013:-|3pUTR|ENSG00000075223|msi1_unk|total|mutant (ssRNA)
RNA: GGGAGUUCUACAGUCCGACGAUCUCAGAGUCACAGUUCCCUUUAUUUCACAUAAGCCCAAACUGACCGACAGUAACGGUGUUCCGUUUUAUACUAUAUUUGUGCUAUUUAAUUCUUUCUAUUUUCACAAUUAUUAAAUUGUGUCAACAGAGGAUUGAGCAUCA
B10: chr9:95099063:95099164:-|3pUTR|ENSG00000158169|unk|FALSE|unique (ssRNA)
RNA: GGGAGUUCUACAGUCCGACGAUCGAGCGCCCCUCCAACCAGGCUGUUAUUCCCCUGGACUCCGUGACAUCUGUGGAAUUUUUUAGCUCUUUAAAAUCUGUAAUUUGUUGUCUAUUUUUUCAUUCUAAAUAAAACUUCAGUUUGCAACAGAGGAUUGAGCAUCA
B11: chr11:112085977:112086295:-|three_prime_utr|ENSG00000150779|control|control|control (ssRNA)
RNA: GGGAGUUCUACAGUCCGACGAUCUCACCCCACUGCCUCACUGGAUUGUGAGGAUCAUAUGCGACAAUGUAUUUGAAAACGACUAGAACAUUAUCGGAGGAAGGUGGACUCUGAAGUAGUCGCUGUAGACUAUGGAUGUAGAACCAACAGAGGAUUGAGCAUCA
B12: chr12:109554177:109554278:-|3pUTR|ENSG00000139428|unk|FALSE|unique (ssRNA)
RNA: GGGAGUUCUACAGUCCGACGAUCUUGCUAUGUGCAGUGCCCUGAGCCAAGUGUUCCACAGACAUUAUCUCAUUUGAACCCCAUAGCAGCCCUGGAAGGAGGCAUUGGGUGGGGAACCAAGUUGUCCUGGGGAGUCAGUGCCAACAACAGAGGAUUGAGCAUCA
B13: chr15:89832191:89832292:-|3pUTR|ENSG00000157823|msi1|FALSE|unique (ssRNA)
RNA: GGGAGUUCUACAGUCCGACGAUCCUAGGUAGCUGGAACCACAGGCACGCAACCACCACUCCUGGCUAGUUUUAUUUUUUUAGUAGAAUAAGGUCUCACUAUGUUGCACAGGCUGGUCUCUAACUCCUUACCUCAAGCCAUCCUCAACAGAGGAUUGAGCAUCA
B14: chr10:80519475:80519574:+|3pUTR|ENSG00000108219|msi1_unk|FALSE|overlapping (ssRNA)
RNA: GGGAGUUCUACAGUCCGACGAUCAGUGUGGUGUAUACUGGUGGCUGUUGAUGAUGAUUUUUUUUUUUUUACACAAUUCUCUGUAGACUAGGAGAAGAAUGCUUGUGUUUUUCGGAAGUGUGAUGCUUCUCUUUGACUGCCAAACAACAGAGGAUUGAGCAUCA

This is one part of the list.

This assay has as its target T1, UNK ZnF1-6 (called full-length). Briefly: nsRBNS (natural sequence RNA bind-n-seq); RBNS binding buffer (assumed for nsRBNS): 25 mM Tris pH 7.5, 150 mM KCl, 3 mM MgCl2, 0.01% Triton X-100, 500 ug/ml BSA, 20 U/ml SUPERase-In, 4 C; UNK is unkempt and MSI1 is Musashi-1; names of the RNAs are library labels; protein concentration not given here; high values mean tight binding.
In the case of B1, the binding signal stood at 21.9 enrichment R. The molecule B2 had a binding signal of 5.83 enrichment R. B3 returned a binding signal of 0.546 enrichment R. B4 displayed a binding signal of 0.578 enrichment R. To B5 belongs 0.892 enrichment R. In the case of B6, the binding signal worked out at 68.7 enrichment R. To B7 belongs 1.85 enrichment R; to B8, 0.572 enrichment R. B9 gave a binding signal of 1.71 enrichment R.

B10: the binding signal came to 2.25 enrichment R.

The molecule B11 yielded a binding signal of 0.779 enrichment R. As for B12, the figure is 0.911 enrichment R. B13 displayed a binding signal of 3.98 enrichment R. Turning to B14, the binding signal was determined as 0.661 enrichment R.
